About 14,000 (4.5%) of roughly 310,000 compounds showed an effect of 50% or more. The effect is printed as a negative number. This is one part of the list.
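Also: peak tail current of the secondary pulse compared with the same well before compound.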

In the test the target is human ether-à-go-go-related gene (hERG) potassium channel (human, UniProt Q12809). As to the kind of experiment: primary screen, population patch clamp on CHO cells stably expressing hERG.
Sequence of human ether-à-go-go-related gene (hERG) potassium channel (Q12809 whole entry, looked up): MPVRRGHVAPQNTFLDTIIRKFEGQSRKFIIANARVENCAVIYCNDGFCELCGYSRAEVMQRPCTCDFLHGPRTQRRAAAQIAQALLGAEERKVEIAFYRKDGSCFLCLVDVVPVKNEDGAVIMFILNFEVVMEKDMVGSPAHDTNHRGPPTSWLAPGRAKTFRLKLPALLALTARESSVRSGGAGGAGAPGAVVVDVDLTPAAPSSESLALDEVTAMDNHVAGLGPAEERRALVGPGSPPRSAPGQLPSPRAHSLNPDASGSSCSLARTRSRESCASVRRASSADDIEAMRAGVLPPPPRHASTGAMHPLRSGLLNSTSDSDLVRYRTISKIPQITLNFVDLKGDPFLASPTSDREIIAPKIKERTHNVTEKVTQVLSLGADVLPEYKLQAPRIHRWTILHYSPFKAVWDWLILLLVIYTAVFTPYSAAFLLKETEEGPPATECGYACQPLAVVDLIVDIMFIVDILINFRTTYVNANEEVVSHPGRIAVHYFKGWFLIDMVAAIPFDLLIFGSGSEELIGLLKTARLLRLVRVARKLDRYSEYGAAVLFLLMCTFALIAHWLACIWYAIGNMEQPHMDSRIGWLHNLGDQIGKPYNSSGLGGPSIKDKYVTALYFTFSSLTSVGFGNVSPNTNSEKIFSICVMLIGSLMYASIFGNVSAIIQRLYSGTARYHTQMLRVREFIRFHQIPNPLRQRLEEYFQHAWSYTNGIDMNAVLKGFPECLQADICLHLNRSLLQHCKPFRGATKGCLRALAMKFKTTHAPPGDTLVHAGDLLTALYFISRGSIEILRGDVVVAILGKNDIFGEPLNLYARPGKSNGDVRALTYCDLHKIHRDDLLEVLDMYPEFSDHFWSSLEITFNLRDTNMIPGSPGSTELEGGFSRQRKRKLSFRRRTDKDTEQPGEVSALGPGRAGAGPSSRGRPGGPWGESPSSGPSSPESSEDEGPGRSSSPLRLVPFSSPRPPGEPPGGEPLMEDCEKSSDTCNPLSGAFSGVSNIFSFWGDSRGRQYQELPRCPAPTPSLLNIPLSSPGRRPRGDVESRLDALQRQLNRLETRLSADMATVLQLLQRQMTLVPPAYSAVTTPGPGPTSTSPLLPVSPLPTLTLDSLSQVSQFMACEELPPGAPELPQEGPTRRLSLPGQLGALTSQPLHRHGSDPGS
Turning to `COc1ccc(-c2nnc(SC(C)C(=O)Nc3nccs3)n2Cc2ccccc2)cc1OC` (stereo not shown), the “hERG current change (%, negative = inhibition) at 10uM” value is -18%.

As for `CCCN1CCC(NC(=O)Cc2ccccc2C)CC1`, the “hERG current change (%, negative = inhibition) at 10uM” value came to 18.9%.

Regarding `COc1ccc(CNC(=O)c2cc(S(=O)(=O)N3CCOCC3)cn2C)cc1`, the “hERG current change (%, negative = inhibition) at 10uM” value amounted to 0.824%.

With `O=C1CCN2C=Nc3cccc4ccc1c2c34`, the “hERG current change (%, negative = inhibition) at 10uM” value was determined as 3.46%.

As to `O=C(Nc1cccc(Cl)c1)c1cc(S(=O)(=O)N2CCCCC2)c[nH]1`, the “hERG current change (%, negative = inhibition) at 10uM” value is listed as -9.13%.

As for `CCOc1ccc(N(CCCCO)C(=S)NC(=O)c2ccc(C)c(Br)c2)cc1`, the “hERG current change (%, negative = inhibition) at 10uM” value was -2.94%.

As for `Cn1ccnc1SCCNC(=O)CCc1nnc(CCCCc2ccccc2)o1`, the “hERG current change (%, negative = inhibition) at 10uM” value is recorded as -12.9%.

As for `CC(C)NC(=O)C(=O)c1cn(C)c2ccccc12`, the “hERG current change (%, negative = inhibition) at 10uM” value is 6.78%.

As to `Cc1cc(C(=O)OCC(=O)NNC(=O)c2cccs2)ccc1[N+](=O)[O-]`, the “hERG current change (%, negative = inhibition) at 10uM” value is -2.58%.

Regarding `CCC1CN(C(=O)N2CCC(C(=O)NCc3ccccc3C)CC2)c2ccccc2O1` (stereo not shown), the “hERG current change (%, negative = inhibition) at 10uM” value is listed as -6.28%.

With `Cc1cccc(NC(=O)Cn2cc(C(=O)C3CC3)c3ccccc32)c1`, the “hERG current change (%, negative = inhibition) at 10uM” value is recorded as 15.5%.

For the compound `CCc1c(C)nc2ncnn2c1N1CCCC(C(=O)Nc2cc(F)ccc2C)C1` (stereo not shown), the “hERG current change (%, negative = inhibition) at 10uM” value was -40.6%.

For the compound `c1ccc2cc(-c3csnn3)ccc2c1`, the “hERG current change (%, negative = inhibition) at 10uM” value is reported as 11.3%.

With `COc1cc(OC)c(OC)cc1/C=N/NC(=O)c1ccc(CSc2nc(C)cc(C)n2)cc1`, the “hERG current change (%, negative = inhibition) at 10uM” value was found to be 13.4%.

Consider `O=C(CS(=O)(=O)c1cn(CC(=O)N2CCOCC2)c2ccccc12)NCc1ccc(F)cc1`, for which the “hERG current change (%, negative = inhibition) at 10uM” value was 23.9%.

Consider `O=C(CN1C(=O)NC2NC(=O)NC21)NN=C1CCCC1` (stereo not shown), for which the “hERG current change (%, negative = inhibition) at 10uM” value amounted to 2.89%.

For the compound `O=C1OCCC1Sc1nnc(-c2cccnc2)n1-c1ccccc1F` (stereo not shown), the “hERG current change (%, negative = inhibition) at 10uM” value came out at 8.74%.

Regarding `Cc1nc(CN2CCCC2=NC#N)n(-c2ccccc2)n1`, the “hERG current change (%, negative = inhibition) at 10uM” value came to 4.04%.

For the compound `COCCNS(=O)(=O)c1cc(Br)ccc1OC`, the “hERG current change (%, negative = inhibition) at 10uM” value amounted to 3.48%.

As to `CCOc1ccc(NCC(=O)c2ccc(C)cc2)cc1`, the “hERG current change (%, negative = inhibition) at 10uM” value came out at 7.06%.

On to `COc1ccc(CCNC(=O)COC(=O)c2cnc(C)cn2)cc1`, for which the “hERG current change (%, negative = inhibition) at 10uM” value worked out at 11.3%.

For the compound `O=C(C1CCCCC1)N1CCC(O)(c2ccc(Cl)cc2)CC1`, the “hERG current change (%, negative = inhibition) at 10uM” value is on record as -10.7%.

Turning to `CCC1=C2CC[C@H]3C(=O)N(c4ccccc4)C(=O)[C@H]3[C@H]2[C@@]2(C)C(=NCC(=O)OC)OC(=O)N2C1=O`, the “hERG current change (%, negative = inhibition) at 10uM” value came out at 25.7%.

For `Cc1ccc(-c2n[nH]c(=O)c3ccccc23)cc1S(=O)(=O)NCC1CCCO1` (stereo not shown), the “hERG current change (%, negative = inhibition) at 10uM” value is listed as -25.2%.

As for `Cc1cc(=O)oc2c3c(cc(OCC(=O)NCCC(=O)N[C@@H](C)C(=O)O)c12)OC(C)(C)CC3`, the “hERG current change (%, negative = inhibition) at 10uM” value was 8.02%.

`NC(=O)c1cccn1Cc1ccccc1Cl`: the “hERG current change (%, negative = inhibition) at 10uM” value came to 4.3%.

Turning to `COc1cccc(C(=O)c2c[nH]c(C(=O)NCc3cccnc3)c2)c1`, the “hERG current change (%, negative = inhibition) at 10uM” value was -8.04%.

In the case of `CC(C)=CCc1c(O)c(CC=C(C)C)c2c(c1O)-c1cc(O)c(O)cc1CC2`, the “hERG current change (%, negative = inhibition) at 10uM” value is -1.38%.

On to `CCCC(=O)OCCNc1cc(SCc2ccco2)c2nonc2c1[N+](=O)[O-]`, for which the “hERG current change (%, negative = inhibition) at 10uM” value is recorded as -19%.

For the compound `Cc1cccc(C(=O)NCC(=O)NC(C)c2ccc(-n3ccnc3)cc2)c1` (stereo not shown), the “hERG current change (%, negative = inhibition) at 10uM” value is reported as -68.5%.

Regarding `OC(CCc1cccc(Cl)c1)c1cccs1` (stereo not shown), the “hERG current change (%, negative = inhibition) at 10uM” value is reported as 13%.

With `COc1ccc(NC(=O)c2cccc3c(Br)cccc23)cc1`, the “hERG current change (%, negative = inhibition) at 10uM” value was 9.81%.

With `Cc1ccc(Oc2ccc(NC(=O)Cn3ccsc3=N)cc2)cc1.Cl`, the “hERG current change (%, negative = inhibition) at 10uM” value is recorded as -45.1%.

Consider `COc1ccc(O)c(C(=O)CC(=O)c2ccccc2C)c1`, for which the “hERG current change (%, negative = inhibition) at 10uM” value is reported as 18.3%.

Regarding `O=C(CSc1nnc(-c2ccccn2)n1Cc1ccccc1)N1CCCC1`, the “hERG current change (%, negative = inhibition) at 10uM” value is -20.1%.

In the case of `Cc1ccc(C)c(N2C(=O)CC(Cc3ccccc3)C2=O)c1.Cl` (stereo not shown), the “hERG current change (%, negative = inhibition) at 10uM” value is reported as 15.9%.

`Cc1ccc(N(Cc2cc(=O)[nH]c3ccccc23)C(=O)CCl)c(C)c1`: the “hERG current change (%, negative = inhibition) at 10uM” value is given as -6.17%.

In the case of `CCNC(=O)NC1(C(=O)Nc2ccc3c(c2)CCC3)CCCCC1`, the “hERG current change (%, negative = inhibition) at 10uM” value is given as 2.35%.

As to `COc1ccccc1NC(=O)CSc1nnc(NC(=O)C2CC2)s1`, the “hERG current change (%, negative = inhibition) at 10uM” value amounted to 14.9%.

Take `CN(CC(=O)Nc1ccc(N2CCOCC2)cc1)CC(=O)Nc1ccccc1C#N`: the “hERG current change (%, negative = inhibition) at 10uM” value was -3.76%.

In the case of `CCN(CC)S(=O)(=O)c1ccc(N2CCCC2)c(NC(=O)Cc2cc(OC)c(OC)c(OC)c2)c1`, the “hERG current change (%, negative = inhibition) at 10uM” value is recorded as -8.43%.

For `Cc1ccccc1Cn1c(CN2CCc3ccccc3C2)nc2c1c(=O)n(C)c(=O)n2C`, the “hERG current change (%, negative = inhibition) at 10uM” value is recorded as -15.9%.

On to `CCN(CC)S(=O)(=O)c1ccc(Cl)c(C(=O)NC)c1`, for which the “hERG current change (%, negative = inhibition) at 10uM” value is reported as 3.57%.
